# Among all 220,000 compounds or so, about 2,300 (1%) were called active. Inconclusive results, whose numbers are uncertain, are shown with a selection of clear calls. The call rests on the fitted dose curve; in most records, active means well fitted inhibition curve with a large enough effect; inconclusive means small, poorly fitted or top-dose-only effect, or effect the other way; inactive means no such curve, though single readings can be large or run the other way. Potencies beside an inconclusive call are fits to weak or partial responses and may not hold up.
# Biological target: Neuropeptide S receptor (Homo sapiens) (UniProt Q6W5P4)
# Sequence of UniProt Q6W5P4 (Q6W5P4 whole entry, looked up): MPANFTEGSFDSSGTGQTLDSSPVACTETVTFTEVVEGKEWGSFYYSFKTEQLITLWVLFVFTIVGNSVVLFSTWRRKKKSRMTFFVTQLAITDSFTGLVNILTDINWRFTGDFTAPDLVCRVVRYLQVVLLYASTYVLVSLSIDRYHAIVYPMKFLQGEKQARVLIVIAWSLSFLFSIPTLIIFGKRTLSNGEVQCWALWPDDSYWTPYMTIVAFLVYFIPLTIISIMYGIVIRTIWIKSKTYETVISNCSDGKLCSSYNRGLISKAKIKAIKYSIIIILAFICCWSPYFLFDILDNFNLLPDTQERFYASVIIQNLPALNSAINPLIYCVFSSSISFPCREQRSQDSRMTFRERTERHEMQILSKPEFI
# Experiment: qHTS Assay for Antagonists of the Neuropeptide S Receptor: cAMP Signal Transduction; further: nearly all actives have a fitted effect of over 50% in size
# Conditions: CHO-NPSR cells, cAMP TR-FRET, antagonist mode; activity change, negative = inhibition: at 38.3 µM (top of the series) unless noted
# On the % scale 0 is the no-effect control and ±100 the full control effect; potency means the concentration at half of the fitted maximal effect; tags describe the fitted curve by direction and shape.
Compound,"activity change, negative = inhibition",Potency
CCOc1ccc(CC(=O)C2C(=O)CC(C)(C)CC2=O)cc1OCC,inactive: -0.433% [at 46.1 µM],
COc1cccc(C2c3[nH]c4ccccc4c3CCN2Cc2cnc(C)s2)c1OC (stereo unspecified),,"inconclusive: 10 µM [activator, partial curve]"
COCCNC(=S)N(Cc1cc2cc(C)ccc2n2nnnc12)C1CCCC1,,"inconclusive: 12.6 µM [inhibitor, single point]"
O=C(NCC1CCCO1)C(c1ccc(F)cc1)N(CC1CCCO1)C(=O)c1ccc(-c2ccccc2)[nH]1 (stereo unspecified),,"inconclusive: 10 µM [activator, single point]"
CCn1c(SCC(=O)Nc2nc3ccc(C)cc3s2)nc2c(c1=O)SC(C)C2 (stereo unspecified),,"inconclusive: 10 µM [inhibitor, partial curve]"
COc1ccc2c(c1)c(CC(=O)O)c(C)n2C(=O)c1ccc(Cl)cc1,,"inconclusive: 1.58 µM [inhibitor, full curve, poor fit]"
Cc1cc(OCC(=O)c2ccc(F)cc2)ccc1N1C(=O)CCC1=O,,"inconclusive: 12.6 µM [inhibitor, single point]"
COc1ccc(C(=O)NCC(C)(C)SCc2c(C)cc(C)cc2C)cc1,,"inconclusive: 12.6 µM [inhibitor, single point]"
COc1ccc(C(=O)CSc2nc(SC)ns2)cc1OC,inactive: -19% [at 46.1 µM],
COc1cccc(C(=O)/C=C/Nc2cc(C)ccc2O)c1,,"inconclusive: 10 µM [inhibitor, single point]"
COc1ccc(/C=C2\CCc3ccccc3C2=O)cc1Cn1cccn1,,"inconclusive: 25.1 µM [inhibitor, single point]"
CN(O)/C=C1\C(=O)Nc2ccccc21,,"inconclusive: 15.8 µM [inhibitor, partial curve]"
Cc1csc(NC(=O)CSc2nsc(SCC(=O)Nc3nc(C)cs3)c2C#N)n1,,"inconclusive: 10 µM [inhibitor, partial curve]"
O=C(CCC(=O)N/N=C/c1ccccc1O)NCc1ccccc1,inactive: 4.21%,
Cc1ccc(-n2c(O)c(/C=N/c3ncn[nH]3)c3ccccc3c2=O)cc1,inactive: -33.7%,
O=C(CSc1cn(CCNC(=O)c2cccs2)c2ccccc12)NCc1ccccc1,,"inconclusive: 10 µM [inhibitor, single point]"
Cn1nnc2c(NCc3ccco3)nccc21,inactive: 2.81% [at 46.1 µM],
CCOC(=O)c1c(NC(=O)c2ccccc2)sc2c(O)c(CN(CC)CC)ccc12,,"inconclusive: 1.58 µM [inhibitor, full curve, poor fit]"
C(=N\Nc1nc2ccccc2[nH]1)/c1ccccn1,,active: 10 µM
COc1cc(/C=C/C(=O)c2ccc(Cl)s2)cc(OC)c1O,,active: 10 µM
CCN(CC)S(=O)(=O)c1ccc(C(=O)Nc2nnc(NC(=S)Nc3ccccc3)s2)cc1,,"inconclusive: 25.1 µM [inhibitor, single point]"
CCOC(=O)c1[nH]c2ccccc2c1CCCN1C(=O)c2ccccc2C1=O,,"inconclusive: 10 µM [inhibitor, partial curve]"

Compound,"activity change, negative = inhibition",Potency
CC(C)CCn1c(Br)nc2c1c(=O)n(CC(N)=O)c(=O)n2C,,"inconclusive: 25.1 µM [activator, single point]"
Nc1ccc(OC(=O)Nc2ccc(O)cc2)cc1,inactive: 11.3%,
CC1C/C(=N/NC(=O)c2ccc(CSc3nc4ccccc4[nH]3)cc2)CC(C)(C)C1 (stereo unspecified),inactive: -5.88%,
COc1ccc2cc(C(=O)NCc3ccco3)c(=Nc3ccc(C(=O)O)cc3)oc2c1,,"inconclusive: 12.6 µM [inhibitor, partial curve]"
CC(C)(C)NC(=O)C(c1cccs1)N(CC1CCCO1)C(=O)c1ccc(-c2ccccc2)[nH]1 (stereo unspecified),,"inconclusive: 12.6 µM [inhibitor, single point]"
Cc1cc(C)c(NC(=O)Cn2nc(-c3ccccc3)nc2-c2ccccc2)c(C)c1,inactive: -12.3%,
CC(C)c1ccc(/C=C(\c2nc3ccccc3[nH]2)S(=O)(=O)c2ccccc2)cc1,,"inconclusive: 10 µM [inhibitor, single point]"
C=CCn1c(CNC(=O)c2cccs2)nnc1SCC(=O)Nc1ccc(C(=O)O)cc1,inconclusive: -42.4% [inhibitor] [at 46.1 µM],
CCN(CC)C(=O)C(C(=O)c1cccc([N+](=O)[O-])c1)n1cc(Cl)ccc1=O (stereo unspecified),inactive: -28%,
CCOC(=O)c1c(C)[nH]c(N=Nc2ccccc2C)c1C,,"inconclusive: 10 µM [inhibitor, partial curve]"
CCOC(=O)C1C(C)N=C2SCC(=O)N2C1c1cccc(Br)c1 (stereo unspecified),,"inconclusive: 12.6 µM [inhibitor, single point]"
Cc1oc2c(CN3CCCC3)c(O)ccc2c(=O)c1-c1ccc(Cl)cc1,inactive: -11.2% [at 46.1 µM],
CCCCCn1c(CN2CCN(c3cccc(Cl)c3)CC2)nc2c1c(=O)[nH]c(=O)n2C,,"inconclusive: 10 µM [inhibitor, single point]"
CC1CCCCN1Cc1c(C#N)c2ccccc2n1C (stereo unspecified),,"inconclusive: 31.6 µM [inhibitor, single point]"
CCOc1ccc(C(=O)N/N=C(\c2ccccc2)c2ccccn2)cc1,,"inconclusive: 10 µM [inhibitor, partial curve, poor fit]"
Cc1cccc2cc(C(c3nnnn3Cc3ccccc3)N3CCN(c4ccccc4)CC3)c(=O)[nH]c12 (stereo unspecified),,"inconclusive: 20 µM [inhibitor, single point]"
CCOc1ccc(/C=N/NC(=O)Cc2csc(Nc3cccc(C(F)(F)F)c3)n2)c(OCC)c1,,"inconclusive: 15.8 µM [inhibitor, single point]"
CC1CCC(C(C)C)C(OCC(O)CNC(C)c2ccccc2)C1 (stereo unspecified),,"inconclusive: 10 µM [inhibitor, single point]"
CC(C)C(CCNC(=O)CC(Cc1ccccc1)c1ccco1)c1ccco1 (stereo unspecified),,"inconclusive: 15.8 µM [inhibitor, single point]"
O=C(NCc1ccc(F)cc1)c1cc2c(s1)CCCC2,inactive: -10.5% [at 46.1 µM],
CCOc1cc(/C=C/c2ccc3cccc([N+](=O)[O-])c3n2)cc(Cl)c1O,,"inconclusive: 12.6 µM [inhibitor, single point]"
O=C(Nc1ccccc1C(=O)OCc1nnc(-c2ccccc2)o1)c1ccco1,,"inconclusive: 10 µM [inhibitor, partial curve]"

Compound,"activity change, negative = inhibition",Potency
Cn1c(SCc2c(Cl)cccc2Cl)nc(C(F)(F)F)cc1=O,,"inconclusive: 15.8 µM [inhibitor, single point]"
Cc1cc(C)c2nc(-c3ccccn3)cc(C(=O)Nc3cc(C)on3)c2c1,,"inconclusive: 10 µM [inhibitor, single point]"
CC(NC(=O)CCCCCN1C(=O)c2ccccc2C1=O)c1ccc2c(c1)CCCC2 (stereo unspecified),,"inconclusive: 7.94 µM [inhibitor, partial curve, poor fit]"
Cc1nn(CC(C)C)c(=S)[nH]c1=O,inactive: -5.06% [at 46.1 µM],
COc1ccc(NC(=O)CSc2c3c(nc4ccccc24)CCCC3)c(OC)c1,inactive: -19.2%,
COc1ccc(C(c2nnnn2Cc2cccs2)N2CCN(c3ccccc3)CC2)cc1OC (stereo unspecified),,"inconclusive: 12.6 µM [inhibitor, partial curve, poor fit]"
COc1ccc(CCN2C(=NC(=O)CCC(=O)O)SC3CS(=O)(=O)CC32)cc1OC (stereo unspecified),,"inconclusive: 3.16 µM [activator, partial curve, poor fit]"
CCOC(=O)N1CCN(C(=O)c2oc3ccc(S(=O)(=O)N4CCCCCC4)cc3c2C)CC1,,"inconclusive: 12.6 µM [inhibitor, single point]"
COC(=O)c1ccccc1NC(=O)N1CSC[C@H]1C(=O)OC,,"inconclusive: 5.01 µM [inhibitor, single point]"
CC(=O)Nc1ccc(S(=O)(=O)NCCc2ccccc2)cc1,,"inconclusive: 0.501 µM [activator, full curve, poor fit]"
CCOc1ccc(OCC)c(NC(=O)CN(c2ccc(C)cc2)S(=O)(=O)c2c(C)noc2C)c1,,"inconclusive: 20 µM [inhibitor, single point]"
COc1ccc2cc(CN(CC3COCCO3)S(=O)(=O)c3ccc(Cl)cc3)c(=O)[nH]c2c1 (stereo unspecified),,"inconclusive: 5.01 µM [inhibitor, single point]"
COc1ccc(-c2cc(-c3ccc(Br)cc3)nc3ncnn23)cc1OC,,"inconclusive: 12.6 µM [inhibitor, single point]"
COc1cc2c(cc1OC)C(C)N(C(=O)Cn1ncc3c1-c1ccccc1OC3)CC2 (stereo unspecified),inactive: -5.13%,
CC(C)OP(=O)(OC(C)C)C(NC(=O)c1ccc(Br)cc1)c1ccccc1 (stereo unspecified),,"inconclusive: 10 µM [inhibitor, single point]"
COc1ccc(CCNC(=O)CCN2C(=O)c3cccc4cccc(c34)C2=O)cc1OC,inactive: -2.12%,
O=C(O)COc1ccc(/C=C/c2nc3ccc([N+](=O)[O-])cc3s2)cc1,,"inconclusive: 25.1 µM [activator, single point]"
CSc1ccccc1NC(=O)CN(c1cccc(C)c1)S(C)(=O)=O,,"inconclusive: 6.31 µM [inhibitor, partial curve, poor fit]"
Cc1ccc(SC[C@H](Cc2ccccc2)N2CCN(CCc3ccccc3)CCC2=O)cc1,,"inconclusive: 12.6 µM [inhibitor, single point]"
CC(=O)Oc1oc(-c2ccccc2)nc1/C=N/c1ccccn1,,"inconclusive: 12.6 µM [inhibitor, single point]"
CCOC(=O)C(=CNc1cc(C)ccc1-n1cccc1)C(=O)OCC,,"inconclusive: 12.6 µM [inhibitor, single point]"
Cc1[nH]c2ccccc2c1SCc1ccccc1,,"inconclusive: 25.1 µM [inhibitor, single point]"
